{
  "source": "patent US6420157B1",
  "about": "“Zymogen activation system” (Ortho-McNeil Pharmaceutical, Inc., priority 1999, dated 2002)",
  "molecules": {"B1": {"name": "CFEK2-Prot.F-6XHIS: recombinant human protease F catalytic domain in a zymogen activation construct; elsewhere named PFEK2-protease F-6XHIS (SEQ.ID.NO.:53) (protein)", "chain": "MAFLWLLSCWALLGTTFGCGVPDYKDDDDAAALAAPFDDDDKIVGGYALELGRWPWQGSLRLWDSHVCGVSLLSHRWALTAAHCFETYSDLSDPSGWMVQFGQLTSMPSFWSLQAYYNRYFVSNIYLSPRYLGNSPYDIALVKLSAPVTYTKHIQPICLQASTFEFENRTDCWVTGWGYIKEDEALPSPHTLQEVQVAIINNSMCNHLFLKYSFRKDIFGDMVCAGNAQGGKDACFGDSGGPLACNKNGLWYQIGVVSWGVGCGRPNRPGVYTNISHHFEWIQKLMAQSGMSQPDPSWSRHHHHHH"}},
  "key": {"[1]": {"assay": "Chromogenic amidolytic assay, release of pNA from H-D-Pro-HHT-Arg-pNA", "format": "biochemical", "details": "EK-activated protease; substrate 500 uM; pH 7.8; 37° C.; 120 minutes", "protocol": "(§1) Cells were lysed on ice in 20 mM Tris (pH7.4), 150 mM NaCl, 1% Triton X-100, 1 mM EDTA, 1 mM EGTA, 1 mM PMSF, leupeptin (1 μg/ml), and pepstatin (1 μg/ml). Cell lysates were mixed with anti-FLAG M2 affinity gel (Eastman Kodak Co., New Haven, Conn.) and bound at 4° C. for 3 hours with gentle rotation. The zymogen-bound resin was washed 3 times with TBS buffer (50 mM Tris-HCl, 150 mM NaCl at a final pH of 7.5), and eluted by competition with FLAG peptide (100 μg/ml) in TBS buffer. The eluted zymogen was dialyzed overnight against TBS in Spectra/Por membrane (MWCO: 12,000-14,000) (Spectra Medical Industries, Inc., Huston, Tex.). […] Eluted protein concentration was determined by a Micro BCA Kit (Pierce, Rockford, Ill.) using bovine serum albumin as a standard. Amidolytic activities of the activated protease was monitored by release of para-nitroaniline (pNA) from the synthetic substrates indicated in Table 2. […] Release of pNA was measured over 120 minutes at 37° C. on a micro-plate reader (Molecular Devices, Menlo Park, Calif.) with a 405 nm absorbance filter. The initial reaction rates (Vmax, mOD/min) were determined from plots of absorbance versus time using Softmax (Molecular Devices, Menlo Park, Calif.). […] No measurable chromogenic amidolytic activity was detected with the purified unactivated zymogens. […]"}, "[2]": {"assay": "Chromogenic amidolytic assay, release of pNA from H-D-Lys(CBO)-Pro-Arg-pNA", "format": "biochemical", "details": "EK-activated protease; substrate 500 uM; pH 7.8; 37° C.; 120 minutes", "protocol": "as §1"}},
  "data": [
    {"molecule": "B1", "values": [
      {"measurement": "specific activity, H-D-Pro-HHT-Arg-pNA", "setting": "[1]", "result": "0.016 nmole pNA produced /min/ug protein"},
      {"measurement": "specific activity, H-D-Lys(CBO)-Pro-Arg-pNA", "setting": "[2]", "result": "0.045 nmole pNA produced /min/ug protein"}
    ]}
  ]
}
